Laboratory results: PMC4336329 (PLoS ONE, 2015)
In all, about 310,000 compounds went through this assay and about 2,200 (0.71%) showed an effect of 50% or more. Effects have a minus sign here. The list shows a part of the results.

Target: human ether-à-go-go-related gene (hERG) potassium channel (human, UniProt Q12809)
Assay: primary screen, population patch clamp on CHO cells stably expressing hERG

Chain of human ether-à-go-go-related gene (hERG) potassium channel (Q12809 whole entry, looked up): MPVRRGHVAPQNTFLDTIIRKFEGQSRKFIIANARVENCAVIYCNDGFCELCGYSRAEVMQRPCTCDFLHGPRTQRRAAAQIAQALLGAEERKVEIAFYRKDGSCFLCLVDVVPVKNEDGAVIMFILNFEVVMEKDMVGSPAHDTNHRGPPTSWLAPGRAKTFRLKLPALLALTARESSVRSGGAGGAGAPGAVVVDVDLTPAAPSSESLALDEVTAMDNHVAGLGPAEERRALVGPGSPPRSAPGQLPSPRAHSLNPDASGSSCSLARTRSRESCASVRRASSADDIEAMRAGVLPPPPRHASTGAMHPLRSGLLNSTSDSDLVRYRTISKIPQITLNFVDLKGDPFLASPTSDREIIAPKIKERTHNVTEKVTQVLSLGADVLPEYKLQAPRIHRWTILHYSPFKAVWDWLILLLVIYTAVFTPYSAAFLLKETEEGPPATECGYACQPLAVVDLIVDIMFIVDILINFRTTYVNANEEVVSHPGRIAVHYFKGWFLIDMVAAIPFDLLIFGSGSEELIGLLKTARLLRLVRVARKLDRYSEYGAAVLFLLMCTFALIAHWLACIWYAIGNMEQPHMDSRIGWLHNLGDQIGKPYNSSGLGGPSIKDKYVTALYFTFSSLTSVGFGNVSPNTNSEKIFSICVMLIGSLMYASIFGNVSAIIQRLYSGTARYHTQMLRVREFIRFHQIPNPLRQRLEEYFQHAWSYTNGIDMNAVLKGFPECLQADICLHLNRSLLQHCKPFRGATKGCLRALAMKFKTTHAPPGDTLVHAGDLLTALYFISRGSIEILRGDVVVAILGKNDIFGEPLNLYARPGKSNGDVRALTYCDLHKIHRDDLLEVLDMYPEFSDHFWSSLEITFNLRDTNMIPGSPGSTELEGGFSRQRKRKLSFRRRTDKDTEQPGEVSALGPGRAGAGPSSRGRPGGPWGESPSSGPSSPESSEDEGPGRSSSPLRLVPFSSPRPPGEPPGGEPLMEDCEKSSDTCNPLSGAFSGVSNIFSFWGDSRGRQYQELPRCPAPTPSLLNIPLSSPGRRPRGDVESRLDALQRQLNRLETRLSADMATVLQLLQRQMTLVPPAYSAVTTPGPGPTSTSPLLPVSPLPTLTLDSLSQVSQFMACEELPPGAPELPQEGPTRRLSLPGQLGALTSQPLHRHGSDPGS

SMILES	hERG current change (%, negative = inhibition) at 1uM
COc1ccc(CCN=C(N)C(C)c2ccccc2)cc1OC.Cl (stereo not drawn)	10.4%
Cl.O=C(O)CCNc1nc(-c2ccccc2)nc2ccccc12	7.06%
COCCNC(=O)c1ccc(CN2CCc3ccccc3C2)cc1	10.4%
O=C(CSc1nc2c(sc3ccccc32)c(=O)n1CCc1ccccc1)NCc1ccco1	2.54%
CCN(CC)CC(O)COCCC12CC3CC(CC(C3)C1)C2.Cl (stereo not drawn)	3.76%
CC(C)c1ccccc1OCC(=O)Nc1ccccc1C(=O)N1CCOCC1	-11.3%
CO/N=C/c1ccc(Oc2ccc(C)cc2)nc1	17.5%
Cn1c(SCC(=O)N/N=C/c2ccncc2)nc2ccccc21	4.27%
Cc1ccc(C(=O)Nc2cccc(Oc3ccccc3)c2)o1	2.22%
CN1C(=O)CS(=O)c2ccc(C(=O)NCCC3=CCCCC3)cc21 (stereo not drawn)	8.43%
Cc1ccc(NC(=O)CSc2sc3c(O)cc(=O)[nH]c3c2C#N)cc1C	0.874%
CC1(C)Cc2c(sc(/N=C/N3CCOCC3)c2C#N)C(C)(C)N1	0.756%
COc1ccccc1NC(=O)Nc1nc(CC(=O)Nc2cccc(F)c2)cs1	12.1%
CCN(CC)CCNC(=O)CCN1N=C(c2ccccc2)CCC1=O	17.2%
Cc1ccc(C)c(NC(=O)C2C3C=CC(O3)C2C(=O)O)c1 (stereo not drawn)	17.4%
Cc1ccnc(NS(=O)(=O)c2ccc(NC(=O)C3CC=CCC3C(=O)O)cc2)n1 (stereo not drawn)	6.12%
S=C(Nc1ccc(Cl)cc1)NC1CC2CCCC(C1)N2C1CCCC1 (stereo not drawn)	-29%
c1ccc(CN2CCOCCOCCOCC2)cc1	11.3%
CCN(CC)S(=O)(=O)c1cc(Cl)ccc1OC	5.73%
CC(C)C(NS(=O)(=O)c1cccs1)C(=O)NCc1ccccc1 (stereo not drawn)	17.6%
COCCCNC(=S)NC1CCCCC1	1.65%
COC(=O)c1cnn(-c2nc3c(C)cccc3s2)c1C	-9.2%
O=C(c1ccc2nc(-c3ccccc3)c(-c3ccccc3)nc2c1)N1CCCCC1	3.53%
CC(C)CSc1nnc2c(n1)[nH]c1ccccc12	6.6%

SMILES	hERG current change (%, negative = inhibition) at 1uM
O=C(NC1CCS(=O)(=O)C1)c1cccc(S(=O)(=O)N2CCCCCC2)c1 (stereo not drawn)	7.97%
Cn1c(N)c(C(=O)COC(=O)c2ccc(OC(F)F)cc2)c(=O)n(C)c1=O	10.9%
Cc1[nH]c2c(C(=O)N3CCCC(CCC(=O)NCc4ccccc4F)C3)cccc2c1C (stereo not drawn)	5.62%
CON(C)c1nc(NCC(C)C)nc(OCC#N)n1	1.5%
O=C(O)c1ccc(CSc2nnc(-c3ccccc3)n2-c2ccccc2)cc1	13.1%
Cc1ccc(-n2c(-c3ccccc3)nnc2-c2cccs2)cc1	17.5%
Cc1ccc(N2C(=O)CSC2c2ccccn2)cc1Cl (stereo not drawn)	13.8%
COc1ccc(C(C)=O)cc1CSc1nncn1-c1ccccc1	-5.26%
O=C(NCCc1ccc(Cl)cc1)C1CCN(C(=O)c2ccc(F)cc2)CC1	-14.3%
COc1ccc(-c2noc(N3CCC(C(=O)Nc4cc(OC)c(OC)c(OC)c4)CC3)n2)cc1	7.22%
Cc1nn(-c2ccccc2)c(Cl)c1/C=N/NC(=O)c1[nH]ncc1Br	10.4%
C=CCOC(=O)C1=C(C)NC2(O)c3ccccc3C(=O)C12O (stereo not drawn)	5.81%
CC(C)C(=O)N1CCN(CCN=CC2=C(O)CC(c3ccco3)CC2=O)CC1 (stereo not drawn)	14%
O=C(NC1CC1)C1CCN(C2CCN(C(=O)c3c(F)cccc3Cl)CC2)CC1	12.7%
Cc1ccccc1C(=O)Oc1ccc(Cl)cc1C(=S)N1CCOCC1	10.1%
CCOc1ccc(NC(=O)N2C[C@H]3C[C@@H](C2)c2cccc(=O)n2C3)cc1	6.17%
CCOC(=O)C(=O)Nc1cc(Cl)ccc1C	11.4%
CCOc1ccccc1/C=N/NC(=O)c1nnn(-c2nonc2N)c1CN1CCC(C)CC1	6.06%
CC(C)NC(=O)CC(=O)N/N=C/c1ccc(F)cc1	3.56%
O=C(Cc1ccc([N+](=O)[O-])cc1)Nc1ccc2c(c1)OCO2	6.1%
COc1ccc(Oc2ccc(/C=C/C(=O)c3cccc(OC)c3)cc2[N+](=O)[O-])cc1	-5.81%
Cc1nn(-c2ccc(F)cc2)c(C)c1/C=C/C(=O)N1CCNC(=O)C1	12.4%
COC(=O)C(Cc1ccc(O)cc1)NC(=O)CCNC(=O)c1ccco1 (stereo not drawn)	15.5%
Cc1ccc(C)c(OCC(=O)Nc2ccc3c(c2)OCO3)c1	7.33%

SMILES	hERG current change (%, negative = inhibition) at 1uM
Cn1nnnc1SCc1ccc(CSc2nnnn2C)cc1	12%
Cc1ccc(-n2c(C)cc(C(=O)COC(=O)C3=NNC(=O)CC3)c2C)cc1	-41.2%
O=C(NC1CCN(Cc2ccccc2)CC1)c1ccc(Cl)cc1Cl	-22.7%
CCOC(=O)NC1(NCc2ccccc2)Oc2ccccc2O1	8.63%
Cc1ccnc(NC(=O)CCC(=O)N(CC(=O)NCCc2ccccc2)Cc2cccs2)c1	15.2%
C=CCNC(=S)NNC(=O)c1ccccc1	11.6%
CC1=Nn2c(nnc2-c2ccco2)SC1	7.27%
Fc1cccc(NCc2ccoc2)c1	1.53%
COC(=O)c1cnc(SCC(=O)c2ccccc2)n1C	11.1%
O=C(N/N=C/c1ccc[nH]1)c1ccc([N+](=O)[O-])cc1	10.3%
Oc1c(C(c2cccs2)N2CCN(c3ccccc3)CC2)ccc2cccnc12 (stereo not drawn)	8.1%
FC(F)(F)Oc1ccc(NC(=S)Nc2ccc(OC(F)(F)F)cc2)cc1	11.8%
O=C1C(Cc2ccc(Br)cc2)SC(=Nc2ccccc2)N1c1ccccc1 (stereo not drawn)	5.1%
N#Cc1cccc(NC(=O)CN2C(=O)NC3(CCCCCC3)C2=O)c1	9.73%
CCOc1cc(N2CCOCC2)c(OCC)cc1NC(=O)Cn1nc(C)c([N+](=O)[O-])c1C	6.15%
O=c1[nH]c2ccc(S(=O)(=O)N3CCCC3)cc2[nH]1	17.2%
CCC(CC)c1nnc(NC(=O)CCS(=O)(=O)Cc2ccccc2)s1	18.4%
COC(=O)C(Cc1ccc(O)cc1)NC(=O)NC12CC3CC(CC(C3)C1)C2 (stereo not drawn)	10.4%
CC(C)NC(=O)C1c2ccccc2Oc2ccccc21	9.11%
COC(=O)C(C(=O)OC)c1ncccc1[N+](=O)[O-]	5.36%
CCOC(=O)C1=C(C)NC(=O)NC1c1ccc(OC)c(Cl)c1 (stereo not drawn)	-0.266%
CC1SC(=NC(=O)c2ccco2)NC1=O (stereo not drawn)	5.47%
CCCN1CCC(NC(=O)Nc2cc(Cl)ccc2OC)CC1	10.7%
Cc1csc(NC(=O)CSc2nnc3ncccn23)n1	-4.58%

SMILES	hERG current change (%, negative = inhibition) at 1uM
O=C(NC(=S)N1CCOCC1)C12CCC3CC(CC(C3)C1)C2	12.8%
COc1ccc(CNc2ccc(Cl)cc2)cc1Cn1ccnc1	10.9%
CC(C)C(=O)Nc1nc(-c2ccc([N+](=O)[O-])cc2)cs1	11.4%
CSCC[C@H](NC(=O)NCc1cccs1)C(=O)O	-3.52%
COc1cccc(C2C(C(=O)OC(C)C)=C(C)Nc3ncnn32)c1 (stereo not drawn)	0.149%
CC(C)(C)c1ccc(NC(=O)Nc2ccc(OCC(=O)N3CCOCC3)cc2)cc1	5.4%
COc1ccc(-n2cnc3cc(C(=O)NCCN4CCOCC4)ccc32)cc1	11.5%
Cc1cc(C[n+]2ccsc2N)c2ncccc2c1.[Br-]	-20.1%
CC1=CCC(C(C)(C)NC(=O)c2ccccc2)C/C1=N\O (stereo not drawn)	-9.97%
O=C(NNC1=NCCC1)c1cccc(S(=O)(=O)N2CCCCC2)c1	18.2%
Cc1cnc(N2C(=O)c3ccc([N+](=O)[O-])cc3C2=O)s1	14.1%
Cc1occc1C(=O)Nc1nnc(-c2ccncc2)s1	6.44%
Cc1nc2ccc(S(=O)(=O)NC(C(=O)Nc3nc4ccc(Cl)cc4s3)C(C)C)cc2s1 (stereo not drawn)	7.34%
COc1ccc(C2=NC(=O)/C(=C\c3cc(OC)c(OC)c(OC)c3)O2)cc1	12.3%
CCOc1ccccc1-c1nc(C(N)=O)c2[nH]c(=O)n(-c3ccccc3)c2n1	17.4%
CC1CCCN(C(=O)C2(NC(=O)Nc3cccc(F)c3)CCCCC2)C1 (stereo not drawn)	9.85%
COc1cccc(NS(=O)(=O)c2ccc3c(c2)CCCN3C(C)=O)c1	0.314%
CCC(=O)N1CCc2cc(S(=O)(=O)NC(C(=O)NCc3ccc(C)cc3)C(C)C)ccc21 (stereo not drawn)	1.57%
CCOC(=O)N1CCN(C(=O)/C=C/c2ccc(OC)c(OC)c2)CC1	10.9%
CC(/C=N/NC(=O)c1ccncc1)=C\c1ccco1	14.7%
O=C(CCC(=O)N1CCOc2ccc(Cl)cc21)NCCCN1CCOCC1	12.5%
